Source: the supplement of paper PMC9588766
Structures can show the parent of a compound that is named as a salt. The full ranking holds about 1,900 compounds; the median of “cell viability of compound + 1 nM pemigatinib relative to pemigatinib-only (DMSO) wells” is about 0.95, and the lowest 2% start at about 0.22. This is one part of the list.

system: PDC-DUC18828; assay: cell viability of compound + 1 nM pemigatinib relative to pemigatinib-only (DMSO) wells (fraction); PDC-DUC18828 is a patient-derived cholangiocarcinoma cell line; higher = less growth inhibition; conditions: first compound 1 µM; pemigatinib concentration 1 nM; 72 h
Experimental: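 Selleck Bioactive library screen in the patient-derived FGFR2 fusion-positive ICC cell line PDC-DUC18828 (500 cells/well). Each compound was tested at 1 uM with 1 nM pemigatinib, in triplicate, for 72 h. Viability was read by CellTiter-Glo and normalised to plate DMSO controls. Value is the paper's averaged normalised viability.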

Q: With `Cc1ccc(Nc2c(F)cccc2Cl)c(CC(=O)O)c1` [Lumiracoxib] + CCN1C(=O)N(c2c(F)c(OC)cc(OC)c2F)Cc2cnc3[nH]c(CN4CCOCC4)cc3c21 [pemigatinib] as the compound, how does the cell viability read?
A: The cell viability was 0.855.

Q: With `Fc1ccc(C(c2ccc(F)cc2)N2CCN(C/C=C/c3ccccc3)CC2)cc1` [Flunarizine 2HCl] + CCN1C(=O)N(c2c(F)c(OC)cc(OC)c2F)Cc2cnc3[nH]c(CN4CCOCC4)cc3c21 [pemigatinib] as the compound, how does the cell viability read?
A: The cell viability was 1.01.

Q: Which cell viability does the source give for `Oc1ccc([C@H]2COc3cc(O)ccc3C2)cc1` [Equol] + CCN1C(=O)N(c2c(F)c(OC)cc(OC)c2F)Cc2cnc3[nH]c(CN4CCOCC4)cc3c21 [pemigatinib] here?
A: The cell viability was 0.986.

Q: `O=c1cc(-c2cccc3c2Sc2ccccc2S3)oc(N2CCOCC2)c1` + CCN1C(=O)N(c2c(F)c(OC)cc(OC)c2F)Cc2cnc3[nH]c(CN4CCOCC4)cc3c21 [pemigatinib] was tested. Which cell viability did it give?
A: The cell viability was 0.998.

Q: With `Cc1c(N(C)C)c(=O)n(-c2ccccc2)n1C` [Amidopyrine] + CCN1C(=O)N(c2c(F)c(OC)cc(OC)c2F)Cc2cnc3[nH]c(CN4CCOCC4)cc3c21 [pemigatinib] as the compound, how does the cell viability read?
A: Its cell viability is 0.898.

Q: `CCOc1cc2ncc(C#N)c(Nc3ccc(F)c(Cl)c3)c2cc1NC(=O)/C=C/CN(C)C` [Pelitinib (EKB-569)] + CCN1C(=O)N(c2c(F)c(OC)cc(OC)c2F)Cc2cnc3[nH]c(CN4CCOCC4)cc3c21 [pemigatinib] was tested. Which cell viability did it give?
A: The cell viability was 0.745.

Q: With `Cc1cc(/C=C/C#N)cc(C)c1Nc1ccnc(Nc2ccc(C#N)cc2)n1` [Rilpivirine] + CCN1C(=O)N(c2c(F)c(OC)cc(OC)c2F)Cc2cnc3[nH]c(CN4CCOCC4)cc3c21 [pemigatinib] as the compound, how does the cell viability read?
A: The cell viability was 1.01.

Q: Which cell viability does the source give for `CCOC(=O)C1=C(COCCN)NC(C)=C(C(=O)OC)C1c1ccccc1Cl` (stereo unspecified) [Amlodipine] + CCN1C(=O)N(c2c(F)c(OC)cc(OC)c2F)Cc2cnc3[nH]c(CN4CCOCC4)cc3c21 [pemigatinib] here?
A: The cell viability was 0.939.

Q: With `Oc1ccc(/C=C/c2cc(O)cc(O)c2)cc1` [Resveratrol] + CCN1C(=O)N(c2c(F)c(OC)cc(OC)c2F)Cc2cnc3[nH]c(CN4CCOCC4)cc3c21 [pemigatinib] as the compound, how does the cell viability read?
A: Its cell viability is 0.998.

Q: For `Cc1ncc(CCCN(C)C)cc1Nc1ncc2c(n1)-c1ccc(C(F)(F)F)cc1NC(=S)C2` + CCN1C(=O)N(c2c(F)c(OC)cc(OC)c2F)Cc2cnc3[nH]c(CN4CCOCC4)cc3c21 [pemigatinib], which cell viability is on record?
A: The cell viability was 0.204.

Q: How did the cell viability turn out when `COc1ccc(/C=C/C(=O)Nc2ccccc2C(=O)O)cc1OC` [Tranilast] + CCN1C(=O)N(c2c(F)c(OC)cc(OC)c2F)Cc2cnc3[nH]c(CN4CCOCC4)cc3c21 [pemigatinib] was run?
A: Its cell viability is 1.01.

Q: How did the cell viability turn out when `CCN(CC)CCNC(=O)c1c(C)[nH]c(/C=C2\C(=O)Nc3ccc(F)cc32)c1C` [Sunitinib Malate] + CCN1C(=O)N(c2c(F)c(OC)cc(OC)c2F)Cc2cnc3[nH]c(CN4CCOCC4)cc3c21 [pemigatinib] was run?
A: The cell viability was 0.939.

Q: Which cell viability does the source give for `CCN(CC)CCNC(=O)c1c(C)[nH]c(/C=C2\C(=O)Nc3ccc(F)cc32)c1C` [Sunitinib] + CCN1C(=O)N(c2c(F)c(OC)cc(OC)c2F)Cc2cnc3[nH]c(CN4CCOCC4)cc3c21 [pemigatinib] here?
A: Its cell viability is 0.992.

Q: `Cc1cccc(C)c1OCC(C)N` (stereo unspecified) [Mexiletine HCl] + CCN1C(=O)N(c2c(F)c(OC)cc(OC)c2F)Cc2cnc3[nH]c(CN4CCOCC4)cc3c21 [pemigatinib] was tested. Which cell viability did it give?
A: The cell viability was 0.984.

Q: With `CN1[C@@H]2CC[C@H]1C[C@@H](OC(=O)c1c[nH]c3ccccc13)C2` [Tropisetron] + CCN1C(=O)N(c2c(F)c(OC)cc(OC)c2F)Cc2cnc3[nH]c(CN4CCOCC4)cc3c21 [pemigatinib] as the compound, how does the cell viability read?
A: Its cell viability is 1.01.

Q: How did the cell viability turn out when `O=S(=O)(NCCSSCCNS(=O)(=O)c1cc(Cl)ccc1Cl)c1cc(Cl)ccc1Cl` + CCN1C(=O)N(c2c(F)c(OC)cc(OC)c2F)Cc2cnc3[nH]c(CN4CCOCC4)cc3c21 [pemigatinib] was run?
A: Its cell viability is 0.978.

Q: How did the cell viability turn out when `CC(=O)[C@H]1CC[C@H]2[C@@H]3C=CC4=CC(=O)CC[C@@]4(C)[C@@H]3CC[C@]12C` [Dydrogesterone] + CCN1C(=O)N(c2c(F)c(OC)cc(OC)c2F)Cc2cnc3[nH]c(CN4CCOCC4)cc3c21 [pemigatinib] was run?
A: Its cell viability is 0.966.

Q: `Cc1cc(=O)[nH]c(=S)[nH]1` [Methylthiouracil] + CCN1C(=O)N(c2c(F)c(OC)cc(OC)c2F)Cc2cnc3[nH]c(CN4CCOCC4)cc3c21 [pemigatinib] was tested. Which cell viability did it give?
A: The cell viability was 0.893.

Q: For `COc1ccccc1OCC(O)CO` (stereo unspecified) [Guaifenesin] + CCN1C(=O)N(c2c(F)c(OC)cc(OC)c2F)Cc2cnc3[nH]c(CN4CCOCC4)cc3c21 [pemigatinib], which cell viability is on record?
A: The cell viability was 1.

Q: Which cell viability does the source give for `Nc1nc(CC(=O)Nc2ccc(CCNC[C@H](O)c3ccccc3)cc2)cs1` [Mirabegron] + CCN1C(=O)N(c2c(F)c(OC)cc(OC)c2F)Cc2cnc3[nH]c(CN4CCOCC4)cc3c21 [pemigatinib] here?
A: The cell viability was 0.836.

Q: With `CC[C@]1(O)C[C@H]2CN(CCc3c([nH]c4ccccc34)[C@@](C(=O)OC)(c3cc4c(cc3OC)N(C=O)[C@H]3[C@@](O)(C(=O)OC)[C@H](OC(C)=O)[C@]5(CC)C=CCN6CC[C@]43[C@@H]65)C2)C1` [Vincristine] + CCN1C(=O)N(c2c(F)c(OC)cc(OC)c2F)Cc2cnc3[nH]c(CN4CCOCC4)cc3c21 [pemigatinib] as the compound, how does the cell viability read?
A: The cell viability was 0.234.

Q: How did the cell viability turn out when `C[C@H]1O[C@@H](O[C@H]2[C@@H](O)C[C@H](O[C@H]3[C@@H](O)C[C@H](O[C@H]4CC[C@@]5(C)[C@H](CC[C@@H]6[C@@H]5C[C@@H](O)[C@]5(C)[C@@H](C7=CC(=O)OC7)CC[C@]65O)C4)O[C@@H]3C)O[C@@H]2C)C[C@H](O)[C@@H]1O` [Digoxin] + CCN1C(=O)N(c2c(F)c(OC)cc(OC)c2F)Cc2cnc3[nH]c(CN4CCOCC4)cc3c21 [pemigatinib] was run?
A: Its cell viability is 0.135.

Q: How did the cell viability turn out when `CC(C(=O)O)c1ccc(-c2ccccc2)c(F)c1` (stereo unspecified) [Flurbiprofen] + CCN1C(=O)N(c2c(F)c(OC)cc(OC)c2F)Cc2cnc3[nH]c(CN4CCOCC4)cc3c21 [pemigatinib] was run?
A: The cell viability was 0.918.

Q: With `NC(=O)c1cn(Cc2c(F)cccc2F)nn1` [Rufinamide] + CCN1C(=O)N(c2c(F)c(OC)cc(OC)c2F)Cc2cnc3[nH]c(CN4CCOCC4)cc3c21 [pemigatinib] as the compound, how does the cell viability read?
A: Its cell viability is 0.904.

Q: With `Cc1cc(O)c2c(c1)C(=O)c1cccc(O)c1C2=O` [Chrysophanic Acid] + CCN1C(=O)N(c2c(F)c(OC)cc(OC)c2F)Cc2cnc3[nH]c(CN4CCOCC4)cc3c21 [pemigatinib] as the compound, how does the cell viability read?
A: The cell viability was 0.886.

Q: With `CC[C@H]1OC(=O)[C@H](C)[C@@H](O[C@H]2C[C@@](C)(OC)[C@@H](O)[C@H](C)O2)[C@H](C)[C@@H](O[C@@H]2O[C@H](C)C[C@H](N(C)C)[C@H]2O)[C@](C)(O)C[C@@H](C)C(=O)[C@H](C)[C@H]2OC(=O)O[C@@]21C` [Erythromycin Cyclocarbonate] + CCN1C(=O)N(c2c(F)c(OC)cc(OC)c2F)Cc2cnc3[nH]c(CN4CCOCC4)cc3c21 [pemigatinib] as the compound, how does the cell viability read?
A: Its cell viability is 0.938.

Q: How did the cell viability turn out when `Cc1c(OCC(F)(F)F)ccnc1C[S@@+]([O-])c1nc2ccccc2[nH]1` [Dexlansoprazole] + CCN1C(=O)N(c2c(F)c(OC)cc(OC)c2F)Cc2cnc3[nH]c(CN4CCOCC4)cc3c21 [pemigatinib] was run?
A: Its cell viability is 0.969.

Q: With `CN(C)C(=O)C(CCN1CCC(O)(c2ccc(Cl)cc2)CC1)(c1ccccc1)c1ccccc1` [Loperamide HCl] + CCN1C(=O)N(c2c(F)c(OC)cc(OC)c2F)Cc2cnc3[nH]c(CN4CCOCC4)cc3c21 [pemigatinib] as the compound, how does the cell viability read?
A: The cell viability was 0.936.

Q: For `Cc1ccccc1C(=O)Nc1ccc(C(=O)N2CCCC(O)c3cc(Cl)ccc32)c(C)c1` (stereo unspecified) [Tolvaptan] + CCN1C(=O)N(c2c(F)c(OC)cc(OC)c2F)Cc2cnc3[nH]c(CN4CCOCC4)cc3c21 [pemigatinib], which cell viability is on record?
A: Its cell viability is 0.996.

Q: How did the cell viability turn out when `O=C(Nc1cccc(C(F)(F)F)c1)Nc1cc(S(=O)(=O)NC2CC2)ccc1-c1ccsc1` + CCN1C(=O)N(c2c(F)c(OC)cc(OC)c2F)Cc2cnc3[nH]c(CN4CCOCC4)cc3c21 [pemigatinib] was run?
A: Its cell viability is 0.965.

Q: For `O=C1c2c(O)cccc2C([C@@H]2O[C@H](CO)[C@@H](O)[C@H](O)[C@H]2O)c2cc(CO)cc(O)c21` (stereo partly specified) [Aloin] + CCN1C(=O)N(c2c(F)c(OC)cc(OC)c2F)Cc2cnc3[nH]c(CN4CCOCC4)cc3c21 [pemigatinib], which cell viability is on record?
A: The cell viability was 0.916.

Q: Which cell viability does the source give for `CC(NC(=O)C(Cc1ccccc1)NC(=O)OCc1ccccc1)C(=O)CF` (stereo unspecified) + CCN1C(=O)N(c2c(F)c(OC)cc(OC)c2F)Cc2cnc3[nH]c(CN4CCOCC4)cc3c21 [pemigatinib] here?
A: The cell viability was 1.01.

Q: Which cell viability does the source give for `C=CCc1cccc(/C=N/NC(=O)CN2CCN(Cc3ccccc3)CC2)c1O` + CCN1C(=O)N(c2c(F)c(OC)cc(OC)c2F)Cc2cnc3[nH]c(CN4CCOCC4)cc3c21 [pemigatinib] here?
A: The cell viability was 0.98.

Q: Which cell viability does the source give for `CC(C(=O)O)c1ccc2c(c1)[nH]c1ccc(Cl)cc12` (stereo unspecified) [Carprofen] + CCN1C(=O)N(c2c(F)c(OC)cc(OC)c2F)Cc2cnc3[nH]c(CN4CCOCC4)cc3c21 [pemigatinib] here?
A: The cell viability was 0.991.

Q: Which cell viability does the source give for `O=C(Nc1ccccc1-c1cn2c(CN3CCNCC3)csc2n1)c1cnc2ccccc2n1` + CCN1C(=O)N(c2c(F)c(OC)cc(OC)c2F)Cc2cnc3[nH]c(CN4CCOCC4)cc3c21 [pemigatinib] here?
A: Its cell viability is 0.882.

Q: Which cell viability does the source give for `O=C(O)c1cc(/N=N/c2ccc(O)c(C(=O)O)c2)ccc1O` [Olsalazine Sodium] + CCN1C(=O)N(c2c(F)c(OC)cc(OC)c2F)Cc2cnc3[nH]c(CN4CCOCC4)cc3c21 [pemigatinib] here?
A: The cell viability was 0.948.
